# Measured values as given in the supplement of paper PMC8728848.
# This is one part of the list.
# What was measured:
# Assay in all cases: glycan array binding signal (z-score within array); higher = stronger binding
# Conditions in all cases: glycan notation: IUPAC condensed, linker removed
# [1] = biological target: Neu5Ac(a2-8)Neu5Ac
# Outline: (§1)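 Arrays were curated from the Consortium for Functional Glycomics database, 3228 in total, and kept only where the protein sequence was available. Binding is expressed as a within-array Z-score. This score was averaged across arrays of the same protein sequence at different concentrations or buffers and across linkers, and negative values can be read as non-binding.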
# [2] = biological target: Neu5Ac(a2-8)Neu5Ac(a2-3)Gal(b1-3)GalNAc(b1-4)[Neu5Ac(a2-3)]Gal(b1-4)Glc
# Outline: as §1
# [3] = biological target: Neu5Ac(a2-8)Neu5Ac(a2-3)Gal(b1-3)GalNAc(b1-4)[Neu5Ac(a2-8)Neu5Ac(a2-3)]Gal(b1-4)Glc
# Outline: as §1
# [4] = biological target: Neu5Ac(a2-8)Neu5Ac(a2-3)Gal(b1-4)Glc
# Outline: as §1
# [5] = biological target: Neu5Ac(a2-8)Neu5Ac(a2-3)Gal(b1-4)GlcNAc
# Outline: as §1
# [6] = biological target: Neu5Ac(a2-8)Neu5Ac(a2-3)[Gal(b1-3)GalNAc(b1-4)]Gal(b1-4)Glc
# Outline: as §1
# [7] = biological target: Neu5Ac(a2-8)Neu5Ac(a2-3)[GalNAc(b1-4)]Gal(b1-4)Glc
# Outline: as §1
# [8] = biological target: Neu5Ac(a2-8)Neu5Ac(a2-8)Neu5Ac
# Outline: as §1
# [9] = biological target: Neu5Ac(a2-8)Neu5Ac(a2-8)Neu5Ac(a2-3)Gal(b1-4)Glc
# Outline: as §1
# [10] = biological target: Neu5Ac(a2-8)Neu5Ac(a2-8)Neu5Ac(a2-3)[Gal(b1-3)GalNAc(b1-4)]Gal(b1-4)Glc
# Outline: as §1
# [11] = biological target: Neu5Ac(a2-8)Neu5Ac(a2-8)Neu5Ac(a2-3)[GalNAc(b1-4)]Gal(b1-4)Glc
# Outline: as §1
# [12] = biological target: Neu5Ac(a2-8)Neu5Ac(a2-8)Neu5Ac(a2-8)Neu5Ac(a2-3)[GalNAc(b1-4)]Gal(b1-4)Glc
# Outline: as §1
# [13] = biological target: Neu5Ac(a2-8)Neu5Gc(a2-3)Gal(b1-4)GlcNAc
# Outline: as §1
# [14] = biological target: Neu5Ac(b2-6)Gal(b1-4)GlcNAc
# Outline: as §1
# [15] = biological target: Neu5Ac(b2-6)GalNAc
# Outline: as §1
# [16] = biological target: Neu5Ac9Ac(a2-3)Gal(b1-3)GlcNAc
# Outline: as §1
# [17] = biological target: Neu5Ac9Ac(a2-3)Gal(b1-4)GlcNAc
# Outline: as §1
# [18] = biological target: Neu5Ac9Ac(a2-6)Gal(b1-4)GlcNAc
# Outline: as §1
# [19] = biological target: Neu5Gc(a2-3)Gal(b1-3)GlcNAc
# Outline: as §1
# [20] = biological target: Neu5Gc(a2-3)Gal(b1-3)[Fuc(a1-4)]GlcNAc
# Outline: as §1
# [21] = biological target: Neu5Gc(a2-3)Gal(b1-4)Glc
# Outline: as §1
# [22] = biological target: Neu5Gc(a2-3)Gal(b1-4)GlcNAc
# Outline: as §1
# [23] = biological target: Neu5Gc(a2-3)Gal(b1-4)GlcNAc(b1-3)Gal(b1-4)GlcNAc(b1-2)Man(a1-3)[Neu5Gc(a2-3)Gal(b1-4)GlcNAc(b1-3)Gal(b1-4)GlcNAc(b1-2)Man(a1-6)]Man(b1-4)GlcNAc(b1-4)GlcNAc
# Outline: as §1
# [24] = biological target: Neu5Gc(a2-3)Gal(b1-4)[Fuc(a1-3)]GlcNAc
# Outline: as §1
# [25] = biological target: Neu5Gc(a2-6)Gal(b1-4)GlcNAc
# Outline: as §1
# [26] = biological target: Neu5Gc(a2-6)GalNAc
# Outline: as §1
# [27] = biological target: Neu5Gc(a2-8)Neu5Ac(a2-3)Gal(b1-4)GlcNAc
# Outline: as §1
# [28] = biological target: Neu5Gc(a2-8)Neu5Gc(a2-3)Gal(b1-4)GlcNAc
# Outline: as §1
# [29] = biological target: Neu5Gc(a2-8)Neu5Gc(a2-3)Gal(b1-4)GlcNAc(b1-3)Gal(b1-4)GlcNAc
# Outline: as §1
# [30] = biological target: Neu5Gc(a2-8)Neu5Gc(a2-6)Gal(b1-4)GlcNAc
# Outline: as §1
# [31] = biological target: Neu5Gc(b2-6)Gal(b1-4)GlcNAc
# Outline: as §1
binder,measurement,setting,value
ACA (Amaranthus caudatus) (protein) MAGLPVIMCLKSNNNQKYLRYQSDNIQQYGLLQFSADKILDPLAQFEVEPSKTYDGLVHIKSRYTNKYLVRWSPNHYWITASANEPDENKSNWACTLFKPLYVEEGNMKKVRLLHVQLGHYTQNYTVGGSFVSYLFAESSQIDTGSKDVFHVIDWKSIFQFPKRYVTFKGNNGKYLGVITINQLPCLQFGYDNLNDPKVAHEMFVTSNGTICIKSTYMNKFWRLSTDDWILVDGNDPRETNEAAALFRSDVHDFNVISLLNMQKTWFIKRFTSGKPGFINCMNAATQNVDETAILEIIELGSNN,glycan array binding signal (z-score),[1],-0.269
same,glycan array binding signal (z-score),[2],-0.178
same,glycan array binding signal (z-score),[3],-0.11
same,glycan array binding signal (z-score),[4],-0.424
same,glycan array binding signal (z-score),[5],-0.566
same,glycan array binding signal (z-score),[6],-0.248
same,glycan array binding signal (z-score),[7],0.187
same,glycan array binding signal (z-score),[8],-0.308
same,glycan array binding signal (z-score),[9],-0.123
same,glycan array binding signal (z-score),[10],0.073
same,glycan array binding signal (z-score),[11],0.252
same,glycan array binding signal (z-score),[12],-0.441
same,glycan array binding signal (z-score),[13],-0.121
same,glycan array binding signal (z-score),[14],-0.293
same,glycan array binding signal (z-score),[15],-0.383
same,glycan array binding signal (z-score),[16],0.099
same,glycan array binding signal (z-score),[17],0.631
same,glycan array binding signal (z-score),[18],-0.487
same,glycan array binding signal (z-score),[19],-0.28
same,glycan array binding signal (z-score),[20],-0.191
same,glycan array binding signal (z-score),[21],0.099
same,glycan array binding signal (z-score),[22],-0.2
same,glycan array binding signal (z-score),[23],1.25
same,glycan array binding signal (z-score),[24],-0.167
same,glycan array binding signal (z-score),[25],-0.372
same,glycan array binding signal (z-score),[26],-0.314
same,glycan array binding signal (z-score),[27],-0.487
same,glycan array binding signal (z-score),[28],-0.362
same,glycan array binding signal (z-score),[29],-0.414
same,glycan array binding signal (z-score),[30],0.076
same,glycan array binding signal (z-score),[31],-0.443
